Laboratory results: PubChem BioAssay AID485313 (National Center for Advancing Translational Sciences (NCATS), 2010)
The campaign covered roughly 320,000 compounds. About 7,600 (2.4%) were called active. Inconclusive means that the source gave no clear call. Such entries were picked first, then a sample of the others. Calls come from the whole dose curve; as a rule, active = well fitted activation curve with a large enough effect; inconclusive = small, poorly fitted or top-dose-only effect; inactive = no such curve, though single readings can be large or run the other way. Potencies of inconclusive entries are doubtful fits and often do not repeat.

assay: qHTS Assay for NPC1 Promoter Activators; settings: Huh7 NPC1 promoter luciferase reporter, 24 h; series mostly up to 9.22 µM; note: nearly all actives have a fitted effect of over 60% in size;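 for activation: reporter is driven by a mutant NPC1 promoter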
How it was run: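 Luciferase expression driven by the NPC1 promoter was measured in stably transfected Huh7 cells after a 24 h compound incubation, using a luciferase reagent and a luminescence read.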
Potency is the fitted concentration of half-maximal effect; tags give direction and shape of the fitted curve.

Potency, active:
Cc1ccc2nc(-c3ccc(NC(=S)NC(=O)CC(C)C)cc3)sc2c1 0.562 µM
Cc1cc(NCCOCCO)n2ncc(-c3ccc(Cl)cc3)c2n1 1.26 µM
Clc1ccccc1N/N=C/c1ccc2c(c1)OCO2 2.82 µM
O=C(Nc1cccc(F)c1)Nc1ccccn1 3.16 µM
COc1ccc(C(=O)/C=C/Nc2cccc(C)n2)cc1OC 2.24 µM
Cc1ccc2nc(-c3ccccn3)oc2c1 1.58 µM
COc1ccc2c(=O)c(-c3nc(C)cs3)coc2c1 0.631 µM
Cn1nccc1C(=O)Nc1ccc2c(c1)OCCO2 3.16 µM
CCOc1ccc(OCc2cccc(C(=O)N/N=C/c3cccnc3)c2)cc1 0.1 µM
CCN=C1S/C(=C\c2ccc(-c3cccc(C(=O)O)c3)o2)C(=O)N1CC 0.631 µM
Cn1c(=NC(=O)c2ccco2)sc2cccc(F)c21 2.51 µM
COc1ccc(C(=O)NC(=S)Nc2ccccc2F)cc1 1.78 µM
CCOC(=O)c1sc(Nc2ccccc2)nc1C 3.98 µM

Potency, inactive:
O=C(OCC(=O)N1CCc2ccccc21)c1cncc(Br)c1
O=C(CCc1nc(-c2ccccc2Cl)no1)NC1CCCCC1
Cc1ccc(-n2ncc3c2CCCC3NC(=O)c2ocnc2C)cc1C (stereo not drawn)
c1ccc(CCCCNCC2COc3ccccc3O2)cc1 (stereo not drawn)
COc1cc(/C=C/c2nc(-c3ccccc3O)n[nH]2)cc(OC)c1OC
Cc1cc(C)n2nc(SC(C)C(=O)Nc3ccc(Cl)cn3)nc2n1 (stereo not drawn)
O=C(O)C1CCC(N2C(=O)C3C4CCC(C4)C3C2=O)CC1 (stereo not drawn)
CCNS(=O)(=O)c1ccc(CCC(=O)N2CCc3ccccc3C2)cc1
COc1ccc(/C=C/c2nc3ccccc3c(=O)n2-c2cccc(C(=O)O)c2)cc1
COc1ccccc1OCCCCOc1ccccc1F
CNC(=O)c1csc(-c2ccc(Cl)cc2)n1
O=C(NCc1ccccc1CN1CCCCC1)c1ccc(Cl)cc1N1CCCC1=O
CNC(=S)Nc1cccc(C(C)=O)c1
COc1ccc(C(=O)N2CCC(C(=O)O)CC2)c2ccccc12
COC(=O)c1cc(S(=O)(=O)NCc2ccc(S(N)(=O)=O)cc2)oc1C
C(=N\Nc1nc2ccccc2[nH]1)/c1cccc2nccnc12
Cc1cccc(CNC(=O)C(C)n2nc(C)c3c(C)n(-c4ccccc4)nc3c2=O)c1 (stereo not drawn)
Cc1cccc(NC(=O)Cc2ccc(-c3ccccc3)cc2)n1
O=C(NCc1ccccn1)c1ccc(CNS(=O)(=O)c2cccc(Cl)c2)cc1

Potency, inconclusive:
Oc1ccc(/C=N/NC2=NCCCCC2)c(O)c1 2.82 µM [activator, partial curve]
Cn1nnnc1SCc1ccc(C(=O)Nc2ccc(Br)cc2)cc1 3.16 µM [activator, single point]
CNC(=O)c1cc2c(s1)-c1ccccc1CC2 5.01 µM [activator, single point]
CC(C)C(=O)Nc1ccc2oc(-c3cc(F)c(F)cc3Cl)nc2c1 4.47 µM [activator, partial curve]
Cc1ccnc(NC(=O)c2ccc(Cl)c(S(=O)(=O)N3CCCC3)c2)c1 5.62 µM [activator, single point]
Cc1cc(-c2nnco2)c(C)n1-c1ccccc1 3.55 µM [activator, partial curve]
CCc1ccc2nc3n[nH]c(N)c3cc2c1 3.55 µM [activator, single point]
CN(C)/C=N/c1sc2c(c1C#N)CCCCC2 3.16 µM [activator, single point]
COc1ccc(NC(=O)c2ccc(OCC3CCCO3)cc2)cc1Cl (stereo not drawn) 3.55 µM [activator, partial curve]
Cc1c(CC(=O)NC(C)C)c(=O)oc2cc3c(cc12)CCC(C)(C)O3 2.51 µM [activator, partial curve]
CCS(=O)(=O)c1nc(S(=O)(=O)c2ccc(C)cc2)c(NCCCN2CCOCC2)s1 1.26 µM [activator, single point]
Cc1ccsc1/C=N/n1cnc2sc(C)c(C)c2c1=O 4.47 µM [activator, partial curve]
Cc1ccsc1C(=O)OCC(=O)NC1CCCC1 2.51 µM [activator, partial curve]
Cc1cc(N2CCOCC2)nc2ccc(NC(=O)CCC(=O)N3CCCCC3)cc12 2 µM [activator, partial curve]
COCCOC(=O)CSc1ncccc1-c1nc2cc(C)c(C)cc2[nH]1 2.51 µM [activator, partial curve]
COc1ccc(OCc2cc(C(=O)N[C@H]3CCCCNC3=O)no2)c(Cl)c1 3.98 µM [activator, partial curve]
CSc1nc(-c2ccc(Cl)cc2)nn1S(=O)(=O)c1ccccc1 5.62 µM [activator, single point]
Cc1cc(C(=O)COc2ncnc3sccc23)c(C)n1C1CC1 3.16 µM [activator, partial curve]
COc1ccc(CCN(C)C(=O)c2cc(-c3ccccc3)nc3ccc(C)cc23)cc1OC 3.98 µM [activator, single point]
CCCN1C(=O)c2ccc(C(=O)Nc3ccccc3C(=O)O)cc2C1=O 5.01 µM [activator, single point]
O=C(N/N=C/c1ccccn1)c1ccc(Br)cc1 3.16 µM [activator, partial curve]
COc1ccc(/C=C(\C#N)c2nc3ccccc3[nH]2)cc1O 5.62 µM [activator, single point]
CCCCNc1nc2cccnc2s1 3.55 µM [activator, single point]
Clc1ccc(SCc2nc3ccccc3[nH]2)cc1 3.55 µM [activator, partial curve]
COc1cccc2c(N/N=C/c3ccc(O)c(O)c3)cc(C)nc12 3.16 µM [activator, single point]
COc1cc(Cl)c(C)cc1NC(=O)c1ccc2c(c1)OCO2 2 µM [activator, partial curve]
Cc1cccc(NC(=O)CCc2c(C)nn(-c3ccc(N4CCCCC4)nn3)c2C)c1 2.24 µM [activator, partial curve]
Cc1nn(-c2ccccc2)c(C)c1/C=N/NC(=O)CSc1nnc(SCc2ccccc2Cl)s1 3.98 µM [activator, single point]
Cc1ccsc1CN(C)C(=O)C1CCC(=O)N(CCc2cccc(F)c2)C1 (stereo not drawn) 3.16 µM [activator, single point]
Fc1ccccc1NC(=S)NCCc1ccc(Cl)cc1 2 µM [activator, partial curve]
COc1ccc(C(=O)N(Cc2ccccc2)c2cccc(C)c2)cc1 5.62 µM [activator, single point]
COc1ccc(S(=O)(=O)Nc2ccc(S(=O)(=O)NCC3CCCO3)cc2)cc1 (stereo not drawn) 0.891 µM [activator, single point]
CCn1c(SCC(=O)c2ccc(Cl)cc2)nnc1C(C)C 6.31 µM [activator, single point]
Cc1ccc(OCC(=O)Nc2ccc(F)cc2)c([N+](=O)[O-])n1 6.31 µM [activator, single point]
Cc1ccnc(NC(=O)CCC(=O)c2cccs2)c1 5.62 µM [activator, single point]
CCCC(=O)Nc1nc(-c2ccccc2)ns1 2.82 µM [activator, partial curve]
N#Cc1cc2cc3c(cc2nc1SCC(=O)N1CCCC1)OCCO3 5.62 µM [activator, single point]
COc1ccccc1OCC(=O)O/N=C(\N)c1ccccn1 5.62 µM [activator, single point]
CN(C)c1ccc(C(=O)c2ccc(O)cc2O)cc1 3.55 µM [activator, single point]
O=C(Nc1cccc(F)c1)c1ccc2c(c1)OCCO2 2.82 µM [activator, partial curve]
CC(C)c1ccc(CNc2ncccn2)cc1 3.55 µM [activator, partial curve]
COc1cccc(NC(=O)Nc2ccc3nsnc3c2)c1 5.01 µM [activator, single point]
O=C(CCNC(=O)c1ccc(Cl)cc1)NCCC1=CCCCC1 3.55 µM [activator, partial curve]
COc1ccc(NC(=O)CN(C)C(=O)CNC(=O)c2sc3ccccc3c2Cl)cc1 3.16 µM [activator, single point]
O=C(c1cc2c(s1)-c1ccccc1OC2)N1CCCC1 3.55 µM [activator, partial curve]
COC(=O)/C(=C\C(=O)c1ccccc1)Nc1cccc(C(F)(F)F)c1 5.62 µM [activator, single point]
